Where a SMILES comes first, the peptide text is derived from it. Bridges are numbered along the chain shown (N, C = ends).
What was measured:
[1] = in vitro, simulated intestinal conditions / intestinal environment; cited from earlier work
[2] = cited from earlier work
[3] = SIF
Description: . Simulated gastric fluid (SGF) was prepared by dissolving 20 mg of NaCl and 8 mg of pepsin in 70 μL of concentrated HCl (32%), and the volume was diluted to 10 mL with water (pH 1.3).[36] Simulated intestinal fluid (SIF) was prepared by dissolving 68 mg of KH2PO4 in 500 μL of water followed by the addition of 800 μL of 0.2 M NaOH and 100 mg of porcine pancreatin, and the volume was adjusted to 10 mL with water (pH 6.8).[36] Peptide stock solution (2 mg/mL in water, 15 μL) was diluted in 285 μL of SGF or SIF and incubated at 37 °C. Aliquots (30 μL) were withdrawn at 0 min, 5 min, 15 min, 30 min, 1 h, 2 h, 4 h, and 8 h and subsequently quenched with 30 μL of 0.2 M Na2CO3 (SGF) or 10% aqueous TFA (SIF). The samples were centrifuged, and the supernatant (15 μL) was analyzed by analytical HPLC. The remaining peptide was determined by measuring the peak area and expressing it as a percentage of the peak area at the 0 h time point. Peptide half-life (t1/2) was determined from the degradation profiles and calculated using Prism 7 (GraphPad, La Jolla USA), assuming an exponential one-phase decay.

Row | SMILES | time within which degraded [1] | time stable in the gastric environment [2] | relative stability among the newly designed analogues [3]
1 | C[C@@H]1NC(=O)[C@@H]2CCCN2C(=O)[C@H](CC(N)=O)NC(=O)[C@@H]2CSSC[C@H](N)C(=O)N[C@H]3CSSC[C@H](NC1=O)C(=O)N[C@@H]([C@@H](C)O)C(=O)NCC(=O)N[C@H](C(=O)N[C@@H](Cc1ccc(O)cc1)C(=O)O)CSSC[C@H](NC(=O)[C@H](Cc1ccc(O)cc1)NC(=O)[C@H](CCC(=O)O)NC3=O)C(=O)N2 [Linaclotide] (H-CCEYCCNPACTGCY-OH; disulfide 1-6, 2-10, 5-13 (inferred)) | ≤ 1 h | at least 3 h | –
2 | C[C@@H]1NC(=O)[C@@H]2CCCN2C(=O)[C@H](CC(N)=O)NC(=O)[C@@H]2CSSC[C@@H]3NC(=O)[C@H](Cc4ccc(O)cc4)NC(=O)[C@@H]4CSSC[C@H](NC(=O)[C@H](Cc5ccc(O)cc5)NC(=O)[C@H](CCC(=O)O)NC(=O)[C@H](CSSC[C@H](NC1=O)C(=O)N[C@@H]([C@@H](C)O)C(=O)NCC(=O)N4)NC3=O)C(=O)N2 [[cyclic]-Linaclotide] (cyclo(ACTGCYCCEYCCNP); disulfide 2-8, 5-11, 7-12) | – | – | least stable
